Measured values published in patent US20240182596A1, “ANTI-NAPI2B ANTIBODIES AND ANTIBODY-DRUG-CONJUGATES BASED THEREON, THERAPEUTIC METHODS AND USES THEREOF” (Tubulis GmbH, priority 2022, published 2024).

T1: NaPi2b (Homo sapiens, UniProt O95436)
T1 construct: Napi2b antigen consisting of Napi2b-extracellular-loop2 expressed as Fc-fusion-6-His-tagged protein in Expi-HEK293 cells; Fc-fusion; 6-His; made in house; host or cells: Expi-HEK293 cells
T1 sequence (O95436 whole entry, looked up): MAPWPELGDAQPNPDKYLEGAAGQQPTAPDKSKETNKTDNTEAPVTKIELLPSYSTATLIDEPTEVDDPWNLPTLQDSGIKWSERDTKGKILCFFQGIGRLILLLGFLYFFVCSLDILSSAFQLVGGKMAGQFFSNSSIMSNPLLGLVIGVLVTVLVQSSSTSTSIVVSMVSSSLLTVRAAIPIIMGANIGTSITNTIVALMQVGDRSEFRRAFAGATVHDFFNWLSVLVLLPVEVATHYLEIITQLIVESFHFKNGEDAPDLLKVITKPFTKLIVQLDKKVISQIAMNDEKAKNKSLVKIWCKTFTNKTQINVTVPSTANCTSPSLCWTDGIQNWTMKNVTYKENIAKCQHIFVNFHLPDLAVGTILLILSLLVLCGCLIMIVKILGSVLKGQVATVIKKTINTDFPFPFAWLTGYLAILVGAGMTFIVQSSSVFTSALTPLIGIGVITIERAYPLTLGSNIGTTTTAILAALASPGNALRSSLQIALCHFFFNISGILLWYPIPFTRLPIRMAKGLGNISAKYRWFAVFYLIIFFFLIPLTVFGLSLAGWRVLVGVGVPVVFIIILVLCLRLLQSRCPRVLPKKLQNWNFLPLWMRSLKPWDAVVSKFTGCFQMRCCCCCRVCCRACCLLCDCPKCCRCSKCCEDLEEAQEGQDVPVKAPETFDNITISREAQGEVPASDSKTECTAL

T2: purified recombinant human Napi2b antigen (Napi2b-extracellular-loop2 Fc-fusion-6-His) (Homo sapiens, UniProt O95436)
T2 construct: Napi2b antigen consisting of Napi2b-extracellular-loop2 expressed as Fc-fusion-6-His-tagged protein in Expi-HEK293 cells; Fc-fusion; 6-His; made in house; host or cells: Expi-HEK293 cells
T2 sequence (O95436 234-362 limits assumed): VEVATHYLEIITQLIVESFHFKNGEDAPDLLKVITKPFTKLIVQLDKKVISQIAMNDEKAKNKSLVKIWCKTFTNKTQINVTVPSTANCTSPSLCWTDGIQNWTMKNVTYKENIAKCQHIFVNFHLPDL


What was measured:
NaPi2b = target: T1, NaPi2b; assay: Binding KD (nmol/L) | ELISA
Description: Table printed on a drawing sheet, FIG. 20
Head of the field: Binding KD (nmol/L) | ELISA
First copying reader's note: Decimal commas and decimal points are mixed as printed; some columns (ADC retention time, cytotoxicity) refer to the antibody-drug conjugates made from the listed mAbs.
Where the first naming reader finds the target: passage: An antibody drug conjugate (ADC) comprising the anti-NaPi2b antibody according to any one of the preceding items.

[1] = target: T2, purified recombinant human Napi2b antigen (Napi2b-extracellular-loop2 Fc-fusion-6-His); assay: Binding to immobilized human NaPi2B evaluated by ELISA; conditions: one-site specific binding model, n=2
Protocol: Binding of increasing concentrations of parental mAb and AV mAb clones to a purified recombinant immobilized human Napi2b antigen was tested in an ELISA setting.
To determine binding of parental and AV mAb clones to Napi2b antigen, flat-bottom surface-treated 96-well-plates (Nunclon, Thermo Fisher Scientific) were coated with 1 μg/mL purified recombinant human Napi2b antigen consisting of Napi2b-extracellular-loop2 expressed as Fc-fusion-6-His-tagged protein in Expi-HEK293 cells. After blocking with 2% bovine serum albumin (Carl Roth) in 1× PBS-Tween 20 (0.05%), increasing antibody concentrations (0.00015, 0.00046, 0.00137, 0.00412, 0.01235, 0.03704, 0.11111, 0.33333, 1.00000, 3.00000, 9.00000 μg/ml) were allowed to bind for 2 hr at room temperature. Bound antibodies were detected by incubation with HRP-conjugated goat anti-human kappa light chain secondary antibody (dilution 1:10000 in blocking solution) for 1 hr at RT. […] Absorbance at 450 nm was measured within 10 min of addition of acid using a microplate reader Infinite M1000 Pro (Tecan). Apparent dissociation constants (KD) were derived by non-linear regression using a one-site specific binding model using Prism 9 software. KD in μg/ml, 0.02209 parental mAb, 0.01581 AV15, 0.01494 AV18, 0,01248 AV21, 0,01060 AV25, 0.01238 AV29.

OVCAR-3 and HCC-78 = assay: Calcein release-based ADCC assay with human NK cells; type: cell-based; conditions: 15 μg/ml, NK:target 4:1, 4 h
Protocol: • and AV25-P5(PEG24)-VC-PAB-Exatecan DAR8 vs the isotypes and an anti-MHC-I positive control (Invivogen) was analyzed, which is mediated after interaction with FcγRIIIa (CD16). For the Calcein release-based antibody-dependent cellular cytotoxicity (ADCC) assay, peripheral blood mononuclear cells (PBMCs) were isolated from healthy donor buffy coats (purchased from DONAS GmbH) using LeucoSep tubes (Greiner Bio-One) and Histopaque®-1077 (density 1.077 g/ml, Merck) density gradient according to standard protocols. Afterwards, natural killer (NK) cells were MACS (magnetic cell separation)-sorted using human NK cell isolation kit (Miltenyi Biotec) by negative selection according to the manufacturer's instructions yielding untouched human primary NK cells. Napi2b-positive target cells OVCAR-3 and HCC-78 (both Napi2b^high) were stained with 16 μM Calcein AM (Thermo Fisher Scientific). 40.000 NK cells and 10.000 Calcein-stained target cells were incubated at a 4:1 ratio in the presence of 15 μg/ml antibodies or ADCs. Cells permeabilized with 2.5% Triton X 100 (Merck) served as a positive control for maximum Calcein release. After 4 h, supernatants were transferred to a flat black non-binding 96-well plate (Greiner Bio-One) and fluorescence was measured at 485/535 nM via the Infinite M200 Pro reader (Tecan). The percent specific killing was calculated by dividing the Calcein released by antibody-mediated killing minus background Calcein release (NKs+targets) from Calcein released by Triton X-permeabilized cells (maximum killing) minus background Calcein release (targets only). Graphs show means of n=2±SEM.
Co-cultures of healthy donor (HD)-derived NK cells and calcein-stained target-positive tumor cells (OVCAR-3 and HCC-78), in a 4:1 ratio, were incubated with 15 μg/ml of indicated antibodies or ADCs (anti-MHC-I antibody served as positive control). The percentage of specific killing was calculated by deviding the calcein released by antibody-mediated cell killing from calcein released by Triton X-permeabilized cells (maximum killing). Graphs show means of n=2±SEM.

Molecule | Kd (NaPi2b) [nM] | Apparent dissociation constants (KD) [1] | ADCC activity (specific killing) (OVCAR-3 and HCC-78)
AV15: anti-NaPi2b antibody, light chain SEQ ID NO: 10, heavy chain SEQ ID NO: 11 (antibody, Heavy chain without a signal seqeunce; Light chain without a signal seqeunce) heavy: EVQLVQSGAEVVKPGASVKMSCKASGYTFTGYNIHWVKQAPGQGLEWIGAIYPGNGDTSYKQKFRGRATLTADTSTSTVYMELSSLRSEDSAVYYCARGETARATFAYWGQGTLVTVSS[human IgG1 constant region with changes skipped] light: DIQMTQSPSSLSASVGDRVTITCSASQDIGKFLNWYQQKPGKTVKVLIYYSSSLYSGVPSRFSGSGSGTDYTLTISSLQPEDFATYYCQQYSKVPLTFGQGTKLELKRTVAAPSVFIFPPSDEQLKSGTASVVCLLNNFYPREAKVQWKVDNALQSGNSQESVTEQDSKDSTYSLSSTLTLSKADYEKHKVYACEVTHQGLSSPVTKSFNRGEC | 105 | – | –
AV18: anti-NaPi2b antibody, light chain SEQ ID NO: 14, heavy chain SEQ ID NO: 15 (antibody, Heavy chain without a signal seqeunce; Light chain without a signal seqeunce) heavy: EVQLVQSGAEVVKPGASVKMSCKASGYTFTGYIIHWVKQAPGQGLEWIGAIYPGSGATSYKQKFRGRATLTADTSTSTVYMELSSLRSEDSAVYYCARGETARATFAYWGQGTLVTVSS[human IgG1 constant region with changes skipped] light: DIQMTQSPSSLSASVGDRVTITCSASQDIGNFLNWYQQKPGKTVKVLIYYTSSLYSGVPSRFSGSGSGTDYTLTISSLQPEDFATYYCQQYSKLPLTFGQGTKLELKRTVAAPSVFIFPPSDEQLKSGTASVVCLLNNFYPREAKVQWKVDNALQSGNSQESVTEQDSKDSTYSLSSTLTLSKADYEKHKVYACEVTHQGLSSPVTKSFNRGEC | 99 | – | –
AV21: anti-NaPi2b antibody, light chain SEQ ID NO: 18, heavy chain SEQ ID NO: 19 (antibody, Heavy chain without a signal seqeunce; Light chain without a signal seqeunce) heavy: EVQLVQSGAEVVKPGASVKMSCKASGYTFTGQIIHWVKQAPGQGLEWIGAISPGNSGTSYKQKFRGRATLTADTSTSTVYMELSSLRSEDSAVYYCARGETARATFAYWGQGTLVTVSS[human IgG1 constant region with changes skipped] light: DIQMTQSPSSLSASVGDRVTITCSASQDIGNFLNWYQQKPGKTVKVLIYYTSSLYSGVPSRFSGSGSGTDYTLTISSLQPEDFATYYCQQYSKLPLTFGQGTKLELKRTVAAPSVFIFPPSDEQLKSGTASVVCLLNNFYPREAKVQWKVDNALQSGNSQESVTEQDSKDSTYSLSSTLTLSKADYEKHKVYACEVTHQGLSSPVTKSFNRGEC | 83 | 0,01248 μg/ml | –
AV29: anti-NaPi2b antibody, light chain SEQ ID NO: 22, heavy chain SEQ ID NO: 23 (antibody, Heavy chain without a signal seqeunce; Light chain without a signal seqeunce) heavy: EVQLVQSGAEVVKPGASVKMSCKASGYTFTGYNILWVKQAPGQGLEWIGAIYPGNGGTSYKQKFRGRATITADTSTSTVYMELSSLRSEDSAVYYCARGEIARATFAYWGQGTLVTVSS[human IgG1 constant region with changes skipped] light: DIQMTQSPSSLSASVGDRVTITCSASQDIGNFLNWYQQKPGKTVKVLIYYASSLYSGVPSRFSGSGSGTDYTLTISSLQPEDFATYYCQQYSKLPLTFGQGTKLELKRTVAAPSVFIFPPSDEQLKSGTASVVCLLNNFYPREAKVQWKVDNALQSGNSQESVTEQDSKDSTYSLSSTLTLSKADYEKHKVYACEVTHQGLSSPVTKSFNRGEC | 82 | – | –
AV25 HC-wt: Fc-wildtype AV25 antibody, HC-wt SEQ ID NO: 61 (antibody) heavy: EVQLVQSGAEVVKPGASVKMSCKASGYTFTGYIIHWVKQAPGQGLEWIGAIYPGSGATSYKQKFRGRATLTADTSTSTVYMELSSLRSEDSAVYYCARGETARATFAYWGQGTLVTVSS[human IgG1 constant region skipped] light: DIQMTQSPSSLSASVGDRVTITCSASQDIGNFLNWYQQKPGKTVKVLIYYASSLYSGVPSRFSGSGSGTDYTLTISSLQPEDFATYYCQQYSKLPLTFGQGTKLELKRTVAAPSVFIFPPSDEQLKSGTASVVCLLNNFYPREAKVQWKVDNALQSGNSQESVTEQDSKDSTYSLSSTLTLSKADYEKHKVYACEVTHQGLSSPVTKSFNRGEC | – | – | triggered high ADCC activity
